B1: IC: solubility optimized second precursor: Trx, DPNG linker, mutated Gp41-1 C-intein fused to Savinase C-extein from S317; SEQ ID NO: 2 (protein)
chain: [sequence of about 100 residues not given]DPNGMTKKITKIEELDERELIDIEVSGNHLFYANDIGTHNSTYASLNGTSMATPHVAGAAALVKQKNPSWSNVQIRNHLKNTATSLGSTNLYGSGLVNAEAATR
modifications: Synthetic construct, Trx-DPNG-MTT-IC
B2: NI: solubility optimized first precursor: Savinase N-extein fused to Gp41-1 N-intein, DPNG linker and Trx; SEQ ID NO: 1 (protein)
chain: MAEEAKEKYLIGFNEQEAVSEFVEQVEANDEVAILSEEEEVEIELLHEFETIPVLSVELSPEDVDALELDPAISYIEEDAEVTTMAQSVPWGISRVQAPAAHNRGLTGSGVKVAVLDTGISTHPDLNIRGGASFVPGEPSTQDGNGHGTHVAGTIAALNNSIGVLGVAPSAELYAVKVLGASGSGSVSSIAQGLEWAGNNGMHVANLSLGSPSPSATLEQAVNSATSRGVLVVAASGNSGAGSISYPARYANAMAVGATDQNNNRASFSQYGAGLDIVAPGVNVQSTYPGCLDLKTQVQTPQGMKEISNIQVGDLVLSNTGYNEVLNVFPKSKKKSYKITLEDGKEIICSEEHLFPTQTGEMNISGGLKEGMCLYVKEDPNG[sequence of about 100 residues not given]
modifications: Synthetic construct, NI-DPNG-TRX

Assay: Expression of solubility optimized NI and IC in E. coli, total and soluble protein profiles
Format: physicochemical
Settings: E. coli BL21 Gold (DE3), IPTG induction, lysate clarified at 5000 g
Description: For expression in E. coli, nucleotide sequences of the solubility optimized NI and IC were cloned into the pET Duet1 (Novagen) expression vector downstream to the IPTG inducible T7 promoter. NI-DPNG-Trx was cloned between the NcoI and PstI sites, Trx-DPNG-MTT-IC[L122G] was cloned between the NdeI and KpnI sites. Plasmids were introduced into the E. coli strain BL21 Gold (DE3) (Invitrogen).
To express the proteins, overnight starter cultures grown in LB+Carbenicillin (100 mg/L) at 30° C. at 300 rpm were diluted 40-fold into fresh LB+Carb 100 mg/L, incubated further at 30° C. at 300 rpm. When cultures reached OD600 0.6, IPTG was added to a final conc. of 0.5 mg/L to induce expression and the t=0 time point samples were harvested. Aliquots (2 mL) were taken thereof at t=1.5, 3.0, 6.0 and 22.0 hrs. Cell were pelleted and lysed in 200 μL lysis buffer at 30° C., 300 rpm for 1 hour and lysates were split to two aliquots. Lysis buffer was 1:9 mix of [10× Fastbreak:mTSB buffer (150 mM NaCl, 50 mM Trisbase, 2 mM CaCl2, pH=7.5, 1 mM DTT)]+0.2 L/mL Benzonase (Novagen). To determine the total protein profile, to 20 μL cell lysate 20 μL 2×SDS loading dye+5% βME was added, samples were heated at 95° C. for 5 min and a 5 μL aliquot was separated on 12% SDS/PAGE, and gels were Coomassie stained. […]

Molecule	fraction to which the protein is expressed
B1	predominantly expressed to the soluble fraction
B2	predominantly expressed to the soluble fraction

Source: patent US10731143B2, “Methods and compositions for stabilizing trans-splicing intein modified proteases” (AGRIVIDA, INC., priority 2014, dated 2020)
